From a collection of fitness landscapes (doi:10.1016/j.celrep.2020.107928)
In all, about 81,000 sequences were measured (“one-hybrid fitness for binding NBS DNA”: median about -0.1, highest 2% from about 0.36 on). The list shows a part of the results.

B1: Caulobacter ParB omega fusion; a variant is named by its letters at X, in order, B8GW30 (parent)
chain: MESVVVGEPGMSEGRRGLGRGLSALLGEVDAAPAQAPGEQLGGSREAPIEILQRNPDQPRRTFREEDLEDLSNSIREKGVLQPILVRPSPDTAGEYQIVAGERAWRAAQRAGLKTVPIMVRELDDLAVLEIGIIENVQRADLNVLEEALSYKVLMEKFERTQENIAQTIGKSXSHVANXMRLLXLPDEVQSYLVSGELTAXHARAIAAAADPVALAKQIIEGGLSVRETEALARKAPNLSAGKSKGGRPPRVKDTDTQALESDLSSVLGLDVSIDHRGSTGTLTITYATLEQLDDLCNRLTRGI

Variants of: B1
Assay: one-hybrid fitness for binding NBS DNA (the Noc-binding site; scaled: cognate 1, non-cognate 0); higher = stronger binding
Settings: with NBS DNA site
How it was run: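 The reporter was HIS3, with the binding site 19 bp from the promoter, in E. coli USO used for bacterial one-hybrid selection of Caulobacter ParB libraries with four specificity codons randomised. Growth was on M9 lacking histidine, with 0.1 mM IPTG and 5 mM 3-AT, for 48 hours at 37°C. Illumina sequencing covered plasmids before and after selection; three replicate libraries were pooled and variants with under 10 reads dropped. A fitness score is the log change in variant-to-wild-type read ratio, rescaled to the cognate and non-cognate references.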

| Variant | one-hybrid fitness for binding NBS DNA |
| --- | --- |
| RISK | ≤ 0.2 |
| QMLL | ≤ 0.2 |
| DRKH | ≤ 0.2 |
| HDAW | ≤ 0.2 |
| DQTC | ≤ 0.2 |
| KTDS | ≤ 0.2 |
| SLRG | ≤ 0.2 |
| NRHL | ≤ 0.2 |
| KWAC | ≤ 0.2 |
| PTLW | ≤ 0.2 |
| TMSK | ≤ 0.2 |
| QQAQ | ≤ 0.2 |
| PSGR | ≤ 0.2 |
| RGYS | ≤ 0.2 |
| WGCV | ≤ 0.2 |
| RNYR | ≤ 0.2 |
| RMAD | ≤ 0.2 |
| TVME | ≤ 0.2 |
| RNCL | ≤ 0.2 |
| SNDC | ≤ 0.2 |
| NLHI | ≤ 0.2 |
| SSGD | ≤ 0.2 |
| RSNF | ≤ 0.2 |
| VANT | ≤ 0.2 |
| CIVT | ≤ 0.2 |
| FVTG | ≤ 0.2 |

| Variant | one-hybrid fitness for binding NBS DNA |
| --- | --- |
| HPAS | ≤ 0.2 |
| MTET | ≤ 0.2 |
| PHSN | ≤ 0.2 |
| WKLG | ≤ 0.2 |
| ASGY | ≤ 0.2 |
| VTES | ≤ 0.2 |
| REHD | ≤ 0.2 |
| RMDA | ≤ 0.2 |
| CFRM | ≤ 0.2 |
| PSGP | ≤ 0.2 |
| PVRS | ≤ 0.2 |
| RFPY | ≤ 0.2 |
| AQPC | ≤ 0.2 |
| GCYG | ≤ 0.2 |
| VPFV | ≤ 0.2 |
| VFFC | ≤ 0.2 |
| QKNC | 0.201 |
| SKKL | ≤ 0.2 |
| PSRT | ≤ 0.2 |
| ETVV | ≤ 0.2 |
| ARIA | ≤ 0.2 |
| TKTV | ≤ 0.2 |
| RKCG | ≤ 0.2 |
| LMFW | ≤ 0.2 |
| APSG | ≤ 0.2 |
| ANRG | ≤ 0.2 |

| Variant | one-hybrid fitness for binding NBS DNA |
| --- | --- |
| DRSN | ≤ 0.2 |
| TFAC | ≤ 0.2 |
| DDFR | ≤ 0.2 |
| WVVM | ≤ 0.2 |
| INIC | ≤ 0.2 |
| LYHA | ≤ 0.2 |
| PHPR | ≤ 0.2 |
| RHEV | ≤ 0.2 |
| PPSR | ≤ 0.2 |
| YMNG | ≤ 0.2 |
| TKCD | ≤ 0.2 |
| DASE | ≤ 0.2 |
| QVHH | ≤ 0.2 |
| ELAE | ≤ 0.2 |
| YPNG | ≤ 0.2 |
| GAPW | ≤ 0.2 |
| TCWG | ≤ 0.2 |
| ETTI | ≤ 0.2 |
| QKLQ | ≤ 0.2 |
| DASA | ≤ 0.2 |
| KSLE | ≤ 0.2 |
| IKEY | ≤ 0.2 |
| WHYT | ≤ 0.2 |
| QVIA | ≤ 0.2 |
| QKYP | ≤ 0.2 |
